Measurements taken from PubChem BioAssay AID264 (DTP/NCI, 2004).
Results filed as inconclusive are left out. Some entries of the source have several records that differ or are many. Only these are listed. The source may hold further records. The values listed for one entry are repeated measurements (runs, samples, wells, individuals or studies). Counts like (3×) count equal records among those shown.

System: nude mice, LX-1 lung xenograft intrarenal, tumor weight T/C
Assay: NCI In Vivo Anticancer Drug Screen. Data for tumor model Human Lung LX-1 Xenograft (intrarenal inoculation) in NU/NU Swiss (nude) mice
Conditions: endpoint: mean tumor weight change, higher = larger tumour
Method: The antitumor activity of compounds was measured in mice bearing transplantable tumors. Survival or tumor size were measured and the results are expressed as the measurement made in the treated group (T) divided by the measurement made in the vehicle treated control group (C). The tumor model used in this assay is Human Lung LX-1 Xenograft (intrarenal inoculation) in NU/NU Swiss (nude) mice

[1] = dose: 8.0 mg/kg/injection, schedule: Q01DX010 (sc), vehicle: saline
[2] = dose: 100.0 mg/kg/injection, schedule: Q01DX010 (sc), vehicle: saline with Tween-80
[3] = dose: 400.0 mg/kg/injection, schedule: Q01DX010 (sc), vehicle: saline with Tween-80
[4] = dose: 6.0 mg/kg/injection, schedule: Q04DX003 (sc), vehicle: saline

## COc1cc2c(cc1O)N=C[C@@H]1CCC(O)N1C2=O (mixture of isomers)
[1]
  T/C: -14 % of control, 65 % of control, 210 % of control
dose: 16.0 mg/kg/injection, schedule: Q01DX010 (sc), vehicle: saline
  T/C: 76 % of control and 152 % of control

## CCC1CC2CN(CCc3c([nH]c4ccccc34)C(C(=O)OC)(c3cc4c(cc3OC)N(C)C3C(O)(C(=O)OC)C(OC(C)=O)C5(CC)C=CCN6CCC43C65)C2)C1 (stereo unspecified)
dose: 2.0 mg/kg/injection, schedule: Q04DX003 (sc), vehicle: saline
  T/C: 53 % of control and 116 % of control
dose: 8.0 mg/kg/injection, schedule: Q04DX003 (sc), vehicle: saline
  T/C: 12 % of control and 45 % of control

## Cc1c(N)nc(C(CC(N)=O)NCC(N)C(N)=O)nc1C(=O)NC(C(=O)NC(C)C(O)C(C)C(=O)NC(C(=O)NCCc1nc(-c2nc(C(=O)NCCCNCCCc3ccccn3)cs2)cs1)C(C)O)C(OC1OC(CO)C(O)C(O)C1OC1OC(CO)C(O)C(OC(N)=O)C1O)c1cnc[nH]1 (stereo unspecified)
dose: 6.0 mg/kg/injection, schedule: Q01DX010 (sc), vehicle: water
  T/C: 3 % of control, 30 % of control, 94 % of control
dose: 24.0 mg/kg/injection, schedule: Q01DX010 (sc), vehicle: water
  T/C: -30 % of control, 37 % of control, 77 % of control

## NC(Cc1ccc(N(CCCl)CCCl)cc1)C(=O)O (stereo unspecified)
dose: 10.0 mg/kg/injection, schedule: Q04DX003 (sc), vehicle: Klucel (hydroxypropylcellulose) (HPC)
  T/C: 51 % of control and 115 % of control
dose: 20.0 mg/kg/injection, schedule: Q04DX003 (sc), vehicle: Klucel (hydroxypropylcellulose) (HPC)
  T/C: 29 % of control and 69 % of control

## O=c1[nH]c(=O)n(C2CC(O)C(CO)O2)cc1I (stereo unspecified)
[2]
  T/C: 41 % of control, 71 % of control, 76 % of control
dose: 200.0 mg/kg/injection, schedule: Q01DX010 (sc), vehicle: saline with Tween-80
  T/C: 14 % of control, 37 % of control, 64 % of control
[3]
  T/C: 19 % of control and 53 % of control

## O=NN(CCCl)C(=O)NC1CCC(=O)NC1=O (stereo unspecified)
dose: 1.56 mg/kg/injection, schedule: Q01DX010 (sc), vehicle: saline with Tween-80
  T/C: 44 % of control and 71 % of control
dose: 6.25 mg/kg/injection, schedule: Q01DX010 (sc), vehicle: saline with Tween-80
  T/C: -100 % of control and 14 % of control

## CC(=O)O[C@@H]1CO[C@H]2O[C@H]3[C@@H](C(C=O)=C[C@H](O)[C@@H]4C5=C(C(C)C)CC[C@]5(C)CC[C@@]34C)[C@@]2(O)C1=O
dose: 50.0 mg/kg/injection, schedule: Q04DX003 (sc), vehicle: Klucel (hydroxypropylcellulose) (HPC)
  T/C: 85 % of control and 159 % of control
dose: 200.0 mg/kg/injection, schedule: Q04DX003 (sc), vehicle: Klucel (hydroxypropylcellulose) (HPC)
  T/C: 54 % of control and 87 % of control

## CC(C)(C)c1ccc(CN2CCN(C(c3ccccc3)c3ccc(Cl)cc3)CC2)cc1 (stereo unspecified)
dose: 300.0 mg/kg/injection, schedule: Q04DX003 (sc), vehicle: Klucel (hydroxypropylcellulose) (HPC)
  T/C: 41 % of control and 72 % of control

## Nc1cc2[nH]cnc2c(=O)[nH]1
dose: 50.0 mg/kg/injection, schedule: Q01DX010 (sc), vehicle: saline
  T/C: 42 % of control and 94 % of control
dose: 100.0 mg/kg/injection, schedule: Q01DX010 (sc), vehicle: saline
  T/C: 35 % of control and 79 % of control

## CNc1nc(N(C)C)nc(N(C)C)n1
dose: 50.0 mg/kg/injection, schedule: Q04DX003 (sc), vehicle: water
  T/C: 52 % of control and 227 % of control

## O=Cc1ccc(C(Cl)(Cl)Cl)cc1
[2]
  T/C: 66 % of control and 223 % of control
[3]
  T/C: 89 % of control and 195 % of control

## CC[N+](CC)(CC)CC
dose: 3.0 mg/kg/injection, schedule: Q01DX010 (sc), vehicle: saline with Tween-80
  T/C: 54 % of control and 108 % of control
dose: 6.0 mg/kg/injection, schedule: Q01DX010 (sc), vehicle: saline with Tween-80
  T/C: 77 % of control and 108 % of control

## c1ccc([P+](c2ccccc2)(c2ccccc2)c2ccccc2)cc1
dose: 20.0 mg/kg/injection, schedule: Q04DX003 (sc), vehicle: saline
  T/C: 48 % of control and 117 % of control

## CC(=O)NCCCCCCNC(C)=O
dose: 1600.0 mg/kg/injection, schedule: Q01DX010 (sc), vehicle: saline
  T/C: 49 % of control and 75 % of control

## C1OC1CN1CCN(CC2CO2)CC1 (stereo unspecified)
[1]
  T/C: 32 % of control and 79 % of control

## COC1=C(N)C(=O)c2nc(-c3nc(C(=O)O)c(C)c(-c4ccc(OC)c(OC)c4O)c3N)ccc2C1=O
dose: 0.5 mg/kg/injection, schedule: Q01DX010 (sc), vehicle: saline
  T/C: -71 % of control and -11 % of control

## CCC1(O)CC2CN(CCc3c([nH]c4ccccc34)C(C(=O)OC)(c3cc4c(cc3OC)N(C)C3C(O)(C(=O)NCCSSCCNC(=O)C5(O)C(O)C6(CC)C=CCN7CCC8(c9cc(C%10(C(=O)OC)CC%11CN(CCc%12c%10[nH]c%10ccccc%12%10)CC(O)(CC)C%11)c(OC)cc9N(C)C58)C76)C(O)C5(CC)C=CCN6CCC43C65)C2)C1 (stereo unspecified)
dose: 3.0 mg/kg/injection, schedule: Q04DX003 (sc), vehicle: saline
  T/C: 4 % of control and 58 % of control
[4]
  T/C: -40 % of control and 56 % of control

## Cc1c2ccncc2c(C)c2c1[nH]c1ccccc12
dose: 25.0 mg/kg/injection, schedule: Q01DX010 (sc), vehicle: saline
  T/C: 54 % of control and 105 % of control

## CCN(C)N=Nc1ccc(C(N)=O)cc1
dose: 50.0 mg/kg/injection, schedule: Q01DX010 (sc), vehicle: Klucel (hydroxypropylcellulose) (HPC)
  T/C: -36 % of control, -18 % of control, 46 % of control
dose: 100.0 mg/kg/injection, schedule: Q01DX010 (sc), vehicle: Klucel (hydroxypropylcellulose) (HPC)
  T/C: -93 % of control, 1 % of control, 20 % of control
dose: 200.0 mg/kg/injection, schedule: Q01DX010 (sc), vehicle: Klucel (hydroxypropylcellulose) (HPC)
  T/C: -53 % of control and 15 % of control

## OCCOCCN1CCN(CCCN2c3ccccc3Sc3ccc(C(F)(F)F)cc32)CC1
dose: 6.0 mg/kg/injection, schedule: Q01DX010 (sc), vehicle: saline
  T/C: 74 % of control and 150 % of control
dose: 48.0 mg/kg/injection, schedule: Q01DX010 (sc), vehicle: saline
  T/C: 70 % of control and 117 % of control

## CN1CCN(Cc2nc3cccc4c3c([n+]2[O-])-c2ccccc2-4)CC1
[2]
  T/C: 110 % of control and 160 % of control

## Nc1nc([Se])c2ncn(C3OC(CO)C(O)C3O)c2n1 (stereo unspecified)
dose: 2.0 mg/kg/injection, schedule: Q01DX010 (sc), vehicle: saline
  T/C: 65 % of control, 221 % of control, 283 % of control
dose: 4.0 mg/kg/injection, schedule: Q01DX010 (sc), vehicle: saline
  T/C: 93 % of control and 122 % of control
[1]
  T/C: 73 % of control, 159 % of control, 224 % of control

## CC1=C(/C=C/C(C)=C/C=C/C(C)=C/C=O)C(C)(C)CCC1
dose: 600.0 mg/kg/injection, schedule: Q04DX003 (sc), vehicle: saline with Tween-80
  T/C: 53 % of control and 103 % of control

## CO[C@@]12[C@H](COC(N)=O)C3=C(C(=O)C(C)=C(N)C3=O)N1C[C@@H]1N[C@@H]12
dose: 2.5 mg/kg/injection, schedule: Q04DX003 (sc), vehicle: saline
  T/C: -75 % of control, 17 % of control, 26 % of control
dose: 5.0 mg/kg/injection, schedule: Q04DX003 (sc), vehicle: saline
  T/C: -100 % of control, -78 % of control, 17 % of control
[4]
  T/C: -70 % of control and 1 % of control (2×)

## CC(=O)c1c(O)c(C)c(O)c2c1OC1=CC(=O)C(C(C)=O)C(=O)C12C (stereo unspecified)
dose: 100.0 mg/kg/injection, schedule: Q01DX010 (sc), vehicle: sodium bicarbonate
  T/C: 36 % of control and 284 % of control

## Nc1nc(F)nc2c1ncn2C1OC(COP(=O)(O)O)C(O)C1O (stereo unspecified)
dose: 200.0 mg/kg/injection, schedule: Q01DX010 (sc), vehicle: saline
  T/C: -36 % of control and 16 % of control

## O=C1C2CC=CCC2C(=O)N1SC(Cl)(Cl)Cl (stereo unspecified)
dose: 25.0 mg/kg/injection, schedule: Q01DX010 (sc), vehicle: saline with Tween-80
  T/C: 67 % of control and 115 % of control

## OCC1OC(n2cnc3c2NC=NC[C@H]3O)CC1O (stereo partly specified)
dose: 4.0 mg/kg/injection, schedule: Q01DX010 (sc), vehicle: water
  T/C: 69 % of control, 84 % of control, 112 % of control
dose: 8.0 mg/kg/injection, schedule: Q01DX010 (sc), vehicle: water
  T/C: 18 % of control and 47 % of control

## COc1cccc2c1C(=O)c1c(O)c3c(c(O)c1C2=O)C[C@@](O)(/C(C)=N/NC(=O)c1ccc(Cl)cc1)C[C@@H]3OC1CC(N)C(O)C(C)O1 (stereo partly specified)
dose: 12.0 mg/kg/injection, schedule: Q04DX003 (sc), vehicle: water
  T/C: 18 % of control and 227 % of control
dose: 24.0 mg/kg/injection, schedule: Q04DX003 (sc), vehicle: water
  T/C: 19 % of control and 87 % of control
dose: 48.0 mg/kg/injection, schedule: Q04DX003 (sc), vehicle: water
  T/C: 3 % of control, 87 % of control, 224 % of control
